# In the supplement of paper PMC9135407:
# Values joined by “and” are separate entries in the source; they are usually repeats but may differ in a detail not shown here. Identical values can stand only once. Counter-ions that a name gives are not always drawn. The whole screen tested about 5,800 compounds, of which about 620 (11%) showed activity.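 How the source made its calls: active = score above a cut-off or among the top three wells of a plate; in these data no inactive exceeds 0.85.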 The entries are a selection whose mix differs from that of the whole data set.
# Tested on: primary human hepatic stellate cells (donor 1)
# Assay: scaled lipid accumulation score (0 = DMSO-like, 1 = nortriptyline-like); higher = stronger HSC inactivation (lipid re-accumulation), active = hit call of the paper
# Settings: 48 h
# [1] = library stock concentration: 10 mM
# [2] = library stock concentration: 80 uM
# [3] = library stock concentration: 400 uM
# [4] = library stock concentration: 2 mM
# [5] = library stock concentration: 3.33 mM
# [6] = library stock concentration: 1 mM
structure (smiles),measurement,setting,value
CC(C)(C)NCC(O)COc1cccc2c1CC(O)C(O)C2 (configuration not stated) [Nadolol],scaled lipid accumulation score,,inactive: ≤ 0
same,scaled lipid accumulation score,[1],inactive: 0.071
C[C@H](CCC(=O)NCCS(=O)(=O)O)[C@H]1CC[C@H]2[C@@H]3[C@H](O)C[C@@H]4C[C@H](O)CC[C@]4(C)[C@H]3C[C@H](O)[C@]12C [Sodium Taurocholate hydrate],scaled lipid accumulation score,[1],inactive: ≤ 0
Cc1ccc(S(=O)(=O)/C=C/C#N)cc1,scaled lipid accumulation score,[2],inactive: ≤ -0.001
same,scaled lipid accumulation score,[3],inactive: ≤ -0.001
same,scaled lipid accumulation score,[4],inactive: 0.813
same,scaled lipid accumulation score,[5],inactive: 0.807
same,scaled lipid accumulation score,[1],inactive: 0.729 and inactive: 0.437
same,scaled lipid accumulation score,library stock concentration: 24.1 mM,inactive: 0.648
CC(C)(C)OC(=O)Nc1ccc(-c2cc(C(=O)NCCCCCCC(=O)NO)no2)cc1,scaled lipid accumulation score,[6],inactive: ≤ 0
Nc1nc(Nc2ccccc2)nc2c1ncn2[C@@H]1O[C@H](CO)[C@@H](O)[C@H]1O,scaled lipid accumulation score,[1],inactive: ≤ 0
CC1(C)CC(=O)C(C2C3=C(CC(C)(C)CC3=O)Oc3ccccc32)C(=O)C1 (configuration not stated),scaled lipid accumulation score,[1],inactive: ≤ -0.002
Fc1ccc([C@@H]2CCNC[C@H]2COc2ccc3c(c2)OCO3)cc1.O=C(O)/C=C\C(=O)O [Paroxetine maleate],scaled lipid accumulation score,[1],active: 1.14
CCCCC/C=C\C/C=C\CCCCCCCC(=O)OCC(O)CO (configuration not stated) [1-Linoleoyl Glycerol],scaled lipid accumulation score,[6],inactive: ≤ 0
CN1CC(=O)N=C1NC(=O)Nc1cccc(Cl)c1 [Fenobam],scaled lipid accumulation score,[1],inactive: 0.352 and inactive: ≤ -0.001
CC[C@H](C)C(=O)O[C@H]1C[C@H](O)C=C2C=C[C@H](C)[C@H](CC[C@@H](O)C[C@@H](O)CC(=O)O)[C@H]21 [PRAVASTATIN Sodium],scaled lipid accumulation score,library stock concentration: 9.5 mM,inactive: ≤ 0
CC[C@H](C)C(=O)O[C@H]1C[C@H](O)C=C2C=C[C@H](C)[C@H](CC[C@@H](O)C[C@@H](O)CC(=O)O)[C@H]21 [Pravastatin sodium],scaled lipid accumulation score,[5],inactive: ≤ 0
same,scaled lipid accumulation score,library stock concentration: 4.5 mM,inactive: ≤ 0
same,scaled lipid accumulation score,[1],inactive: ≤ 0 and inactive: ≤ -0.027
CC[C@H](C)C(=O)O[C@H]1C[C@H](O)C=C2C=C[C@H](C)[C@H](CC[C@@H](O)C[C@@H](O)CC(=O)O)[C@H]21 [Pravastatin sodium salt],scaled lipid accumulation score,[1],inactive: 0.04
CC1=C(C(=O)O)N2C(=O)[C@@H](NC(=O)[C@H](N)c3ccccc3)[C@H]2SC1 [Cephalexin],scaled lipid accumulation score,[5],inactive: 0.022
same,scaled lipid accumulation score,library stock concentration: 5.8 mM,inactive: ≤ 0
same,scaled lipid accumulation score,[1],inactive: ≤ 0
CC1=C(C(=O)O)N2C(=O)[C@@H](NC(=O)[C@H](N)c3ccccc3)[C@H]2SC1 [Cephalexin monohydrate],scaled lipid accumulation score,,inactive: ≤ 0
same,scaled lipid accumulation score,[1],inactive: 0.196
CC1=C(C(=O)O)N2C(=O)[C@@H](NC(=O)[C@H](N)c3ccccc3)[C@H]2SC1 [Cephalexin hydrate],scaled lipid accumulation score,[1],inactive: 0.279
CCCc1c(OCCCOc2ccc(OCC(=O)O)cc2)ccc(C(C)=O)c1O,scaled lipid accumulation score,[1],inactive: 0.041 and inactive: ≤ -0.006
CCCOc1ccc(C=C2SC(=O)NC2=O)cc1,scaled lipid accumulation score,[2],inactive: ≤ -0.001
same,scaled lipid accumulation score,[3],inactive: ≤ -0.001
same,scaled lipid accumulation score,[4],inactive: ≤ -0.001
same,scaled lipid accumulation score,[1],inactive: ≤ -0.001
CO[C@H]1C=CC=C(C)C(=O)NC2=CC(=O)C(NCCN(C)C)=C(C[C@@H](C)C[C@H](OC)[C@H](O)[C@@H](C)C=C(C)[C@@H]1OC(N)=O)C2=O.Cl [17-DMAG (Alvespimycin) HCl],scaled lipid accumulation score,[1],active: 1.24
CC/C=C\C/C=C\C/C=C\CCCCCCCC(=O)O [.alpha.-Linolenic Acid],scaled lipid accumulation score,[6],inactive: 0.009
CC/C=C\C/C=C\C/C=C\CCCCCCCC(=O)O [Linolenic acid (18:3 n-3)],scaled lipid accumulation score,[6],inactive: ≤ -0.021
CCCC(=O)Nc1cccc(NC(=O)c2ccccc2Br)c1,scaled lipid accumulation score,[5],inactive: ≤ 0
same,scaled lipid accumulation score,[1],inactive: 0.024
C#CC1(O)CC[C@H]2[C@@H]3CCC4=CC(=O)CC[C@@H]4[C@H]3CC[C@@]21CC (some centres not stated) [Norgestrel],scaled lipid accumulation score,[6],inactive: 0.037
same,scaled lipid accumulation score,[1],inactive: 0.03
CO[C@H]1C[C@@H]2CC[C@@H](C)[C@@](O)(O2)C(=O)C(=O)N2CCCC[C@H]2C(=O)O[C@H]([C@H](C)C[C@@H]2CC[C@H](n3cnnn3)[C@H](OC)C2)CC(=O)[C@H](C)/C=C(\C)[C@@H](O)[C@@H](OC)C(=O)[C@H](C)C[C@H](C)/C=C/C=C/C=C/1C [Zotarolimus(ABT-578)],scaled lipid accumulation score,[5],inactive: 0.109
same,scaled lipid accumulation score,[1],inactive: ≤ 0
O=C(O)c1ccc(O)c2ncccc12,scaled lipid accumulation score,[5],inactive: 0.005
same,scaled lipid accumulation score,[1],inactive: ≤ 0
O=C1c2ccccc2CCC1CNCCc1ccc(O)cc1 (configuration not stated) [HEAT hydrochloride],scaled lipid accumulation score,[1],inactive: 0.394
COCCCC/C(=N\OCCN)c1ccc(C(F)(F)F)cc1.O=C(O)/C=C\C(=O)O [Fluvoxamine maleate],scaled lipid accumulation score,[1],active: 1.13
Nc1nnc(-c2cccc(Cl)c2Cl)c(N)n1 [Lamotrigine],scaled lipid accumulation score,[5],inactive: ≤ 0
same,scaled lipid accumulation score,library stock concentration: 7.8 mM,inactive: ≤ -0.006 and inactive: ≤ 0
same,scaled lipid accumulation score,[1],inactive: ≤ 0 and inactive: ≤ -0.055
CCCCCCCCc1ccc(CCC(N)(CO)CO)cc1.Cl [Fingolimod (FTY720) HCl],scaled lipid accumulation score,[5],active: 1.17
Cc1cc(Nc2cc(CN3CCOCC3)c3nc(C)c(Cc4ccc(Cl)cc4F)n3n2)n[nH]1,scaled lipid accumulation score,[5],inactive: ≤ 0
same,scaled lipid accumulation score,[1],inactive: 0.474
"Brc1ccc(C2CN3CCSC3=N2)cc1 (single isomer, unassigned; (-)) [(-)-p-Bromotetramisole Oxalate]",scaled lipid accumulation score,[5],inactive: ≤ -0.009
same,scaled lipid accumulation score,[1],inactive: 0.192
O=C(O)CCC/C=C\C[C@H]1[C@@H](O)CC(=O)[C@@H]1/C=C/[C@@H](O)COc1cccc(C(F)(F)F)c1 [11-keto Fluprostenol],scaled lipid accumulation score,[6],inactive: ≤ 0
NC(C(=O)O)c1ccc(C(=O)O)c(C(=O)O)c1 (racemic),scaled lipid accumulation score,[1],inactive: ≤ -0.006
COc1cc2c(Oc3ccc4[nH]c(C)cc4c3F)ncnc2cc1OCCCN1CCCC1 [Cediranib (AZD2171)],scaled lipid accumulation score,[5],active: 1.1
CCCCCS(=O)(=O)CCCCCCCCCCn1c(-c2ccc(O)cc2)c(C)c2cc(O)ccc21,scaled lipid accumulation score,[1],inactive: 0.009
COc1cc2nc(N3CCN(C(=O)c4ccco4)CC3)nc(N)c2cc1OC.Cl [Prazosin hydrochloride],scaled lipid accumulation score,[1],active: 1.35
